The source of these data is the RNAGym collection of RNA variant scans (doi:10.1093/nar/gkz1192).

The labels stand for the following.
B1: CPEB3 Ribozyme (parent)
chain: UAACAGGGGGCCACAGCAGAAGCGUUCACGUCGCAGCCCCUGUCAGAUUCUGGUGAAUCUGCGAAUUCUGCUGUAUAUCUC

The source gives no read counts; variants with many changes may rest on few reads.

Variants of B1 are the subject of this series. Nature of the series: self-cleavage, relative activity (ratio to wild type); higher = more cleavage; in vitro, sequencing. The essentials:
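Relative activity was defined as the cleaved/total read fraction for a variant divided by the same fraction for the unmutated ribozyme. CPEB3 self-cleaving ribozyme libraries were made by rounds of error-prone PCR, barcoded, and transcribed in vitro with T7 RNA polymerase for 5 hours at 37°C, and cleavage ran through transcription plus a 15 min DNase I step before EDTA. Illumina sequencing of template-switched reverse transcripts gave the reads, and DNA sequencing mapped the barcodes. Averages come from three batches, using variants with at least 5 reads.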
As to UAACAGGGGGCCACAGCAGAAGCGUUCACGUCGCAGCCCCUGUCAGAUUCUGGUGUACCUGCGAAUUCUGCUGAAUAUCUC, the self-cleavage was 0.2.

Take UAACAGGGGGCCACAGCAGAAGCGUUCACGUCGCAGCCCCUGUCAGAUUCUGGCGAAUCUGCGGAUUCUGCUGUAUAUCCC: the self-cleavage came to 0.87. In the case of UAACAGGGGGCCACAGCAGAAGCGUUCACGUCGCAGCCCCUGUCAGAUUCUGGGGAAUCUGCGAAUCCUGCUGUUUAUCUC it was 0.16; in that of UAACAGGGGGCCACAGCAGAAGCGUUCACGUCGCAGCCCCUGUCAGAUUCUGGUGGAUCUGCGAAUUCUGCUGUAUGUCGC, 0.93; in that of UAACAGGGGGCCACAGCAGAAGCGUUCACGUCGCAGCCCCUGUCAGAUUCUGGUGGAUCUGCGAAUCCUGCUGCAUAUCUC, 0.26. With UAACAGGGGGCCACAGCAGAAGCGUUCACGUCGCAGCCCCUGUCAGAUUCUGGUGGAUCCGCGAAUUCUGCUGUAUAUCCC, the self-cleavage came to 0.42.

UAACAGGGGGCCACAGCAGAAGCGUUCACGUCGCAGCCCCUGUCAGAUUCUGGGGAAUCUGCGGAUUCUGCUGAAUAUCUC: the self-cleavage worked out at 1.14. In the case of UAACAGGGGGCCACAGCAGAAGCGUUCACGUCGCAGCCCCUGUCAGAUUCUGGUGUAUCUGCGUAUUCUGCUGUACAUCUC it was 0.26; in that of UAACAGGGGGCCACAGCAGAAGCGUUCACGUCGCAGCCCCUGUCAGAUUCUGGUGGAUCAGCGGAUUCUGCCGUAUAUCUC, 0.43. With UAACAGGGGGCCACAGCAGAAGCGUUCACGUCGCAGCCCCUGUCAGAUUCUGGUGGGUCUGCGUAUUCUGCAGUAUAUCUC, the self-cleavage was 0.19. For UAACAGGGGGCCACAGCAGAAGCGUUCACGUCGCAGCCCCUGUCAGAUUCUGGUGGGUCUGCGAAUUCCGCUGUAUUUCUC, the self-cleavage came to 0.18. In the case of UAACAGGGGGCCACAGCAGAAGCGUUCACGUCGCAGCCCCUGUCAGAUUCUGGCGAUUCUGCGCAUUCUGCUGUAUAUCUC it was 0.2; in that of UAACAGGGGGCCACAGCAGAAGCGUUCACGUCGCAGCCCCUGUCAGAUUCUGGCGAAUCUGCGUAUUCUGCUGUAUAUCCC, 0.34; in that of UAACAGGGGGCCACAGCAGAAGCGUUCACGUCGCAGCCCCUGUCAGAUUCUGGUGGGUCUGCGAAUUCUGCUGUAUAUCCC, 0.44. As to UAACAGGGGGCCACAGCAGAAGCGUUCACGUCGCAGCCCCUGUCAGAUUCUGGUGGAUCUGCGAAUACCGCUGUAUAUCUC, the self-cleavage is 0.24.

Take UAACAGGGGGCCACAGCAGAAGCGUUCACGUCGCAGCCCCUGUCAGAUUCUGGUGGAUCUGCGAAUUCAGCUGUAUUUCUC: the self-cleavage amounted to 0.53. As for UAACAGGGGGCCACAGCAGAAGCGUUCACGUCGCAGCCCCUGUCAGAUUCUGGCGAUUCUGCGAAUUCUGCUGUAUAUCAC, the self-cleavage worked out at 0.85.

Regarding UAACAGGGGGCCACAGCAGAAGCGUUCACGUCGCAGCCCCUGUCAGAUUCUGGCGAGUCCGCGAAUUCCGCUGUAUAUCUC, the self-cleavage turned out to be 0.13.

Turning to UAACAGGGGGCCACAGCAGAAGCGUUCACGUCGCAGCCCCUGUCAGAUUCUGGCGAAUCUGCGAGUUCUGCUGUAUACCCC, the self-cleavage turned out to be 0.15. Turning to UAACAGGGGGCCACAGCAGAAGCGUUCACGUCGCAGCCCCUGUCAGAUUCUGGCGAAUCUGCGAACUCUGCUGAAUAUCUC, the self-cleavage is 0.47.

In the case of UAACAGGGGGCCACAGCAGAAGCGUUCACGUCGCAGCCCCUGUCAGAUUCUGGUAAUUCCGCGAAUUCUGCUGUAUAUCUC, the self-cleavage came out at 0.21. In the case of UAACAGGGGGCCACAGCAGAAGCGUUCACGUCGCAGCCCCUGUCAGAUUCUGGCGAGUCUGCGAAUCCUGCUGUAUAUCUC, the self-cleavage was found to be 0.17. In the case of UAACAGGGGGCCACAGCAGAAGCGUUCACGUCGCAGCCCCUGUCAGAUUCUGGUGGAUCUGCGGAUUCUGCUGCAUAUCUC, the self-cleavage stood at 0.96. Turning to UAACAGGGGGCCACAGCAGAAGCGUUCACGUCGCAGCCCCUGUCAGAUUCUGGCGAAUCUGCGAAUUCUGCUGUAUACUUC, the self-cleavage was determined as 1.23. Next, UAACAGGGGGCCACAGCAGAAGCGUUCACGUCGCAGCCCCUGUCAGAUUCUGGUGUUUCUGCGAGUUCUGCUGUAUAUCUC: 0.23; UAACAGGGGGCCACAGCAGAAGCGUUCACGUCGCAGCCCCUGUCAGAUUCUGGUGUGUCUGCGAAUUCUGCUGUUUAUCCC: 0.34; UAACAGGGGGCCACAGCAGAAGCGUUCACGUCGCAGCCCCUGUCAGAUUCUGGUUAAUCUGCGAGUUCCGCUGUAUAUCUC: 0.23. In the case of UAACAGGGGGCCACAGCAGAAGCGUUCACGUCGCAGCCCCUGUCAGAUUCUGGCGAAUCUGCGAGUUCUGCUGUAUACCUC it was 0.31; in that of UAACAGGGGGCCACAGCAGAAGCGUUCACGUCGCAGCCCCUGUCAGAUUCUGGUGGAGCUGCGAAUCCUGCUGUAUAUCUC, 0.

As for UAACAGGGGGCCACAGCAGAAGCGUUCACGUCGCAGCCCCUGUCAGAUUCUGGUGGAUCUGCGUAGUCUGCUGUAUAUCUC, the self-cleavage was determined as 0.15. Turning to UAACAGGGGGCCACAGCAGAAGCGUUCACGUCGCAGCCCCUGUCAGAUUCUGGCGAAUCUGCGAAUUCUGAUGUAUACCUC, the self-cleavage came to 0.13. For UAACAGGGGGCCACAGCAGAAGCGUUCACGUCGCAGCCCCUGUCAGAUUCUGGUAAAUCUGCGAAUUCUGCCGUAUAUCCC, the self-cleavage amounted to 1.21.

Turning to UAACAGGGGGCCACAGCAGAAGCGUUCACGUCGCAGCCCCUGUCAGAUUCUGGUGGUUCUGCGAAUUCUGCCGUAUAUCUC, the self-cleavage is 0.22. With UAACAGGGGGCCACAGCAGAAGCGUUCACGUCGCAGCCCCUGUCAGAUUCUGGGGAAUCUGCGACUUCUGCAGUAUAUCUC, the self-cleavage is 0.13. In the case of UAACAGGGGGCCACAGCAGAAGCGUUCACGUCGCAGCCCCUGUCAGAUUCUGGCGAAUCUGCGAAUUCGGCUGUAUAUCAC it was 0.53; in that of UAACAGGGGGCCACAGCAGAAGCGUUCACGUCGCAGCCCCUGUCAGAUUCUGGUGGAUCUGCGAAUUCCGCCGUAUAUCUC, 0.35; in that of UAACAGGGGGCCACAGCAGAAGCGUUCACGUCGCAGCCCCUGUCAGAUUCUGGCGAAUCUGCGAACCCUGCUGUAUAUCUC, 0.22. In the case of UAACAGGGGGCCACAGCAGAAGCGUUCACGUCGCAGCCCCUGUCAGAUUCUGGCGAAUCUGCGAAUUCUGCUGUAUAACAC it was 1.22; in that of UAACAGGGGGCCACAGCAGAAGCGUUCACGUCGCAGCCCCUGUCAGAUUCUGGGGAAGCUGCGAAUUCCGCUGUAUUCCUC, 0.15; in that of UAACAGGGGGCCACAGCAGAAGCGUUCACGUCGCAGCCCCUGUCAGAUUCUGGCGAACCUGCGAUUUCUGCUGUAUAUCUC, 0.14. For UAACAGGGGGCCACAGCAGAAGCGUUCACGUCGCAGCCCCUGUCAGAUUCUGGUGGAUCUGCGAAUUCCGCUGUAUGUCUC, the self-cleavage was found to be 0.5. Take UAACAGGGGGCCACAGCAGAAGCGUUCACGUCGCAGCCCCUGUCAGAUUCUGGUUAAUCUGCGAAUUCUGCCGUAUAUCCC: the self-cleavage was 1.2.

As for UAACAGGGGGCCACAGCAGAAGCGUUCACGUCGCAGCCCCUGUCAGAUUCUGGUGUAUAUGCGAAUUCUGCUGUAGAUCUC, the self-cleavage worked out at 0.08. For UAACAGGGGGCCACAGCAGAAGCGUUCACGUCGCAGCCCCUGUCAGAUUCUGGUGGAUCCGCGGAUUCUGCUGUAUAUCUC, the self-cleavage is 0.2. In the case of UAACAGGGGGCCACAGCAGAAGCGUUCACGUCGCAGCCCCUGUCAGAUUCUGGCGAAUCUGCGAAUUCCGCUGUAUAGCUC it was 0.47; in that of UAACAGGGGGCCACAGCAGAAGCGUUCACGUCGCAGCCCCUGUCAGAUUCUGGCGAAUCUGCGAAUUCUGCCGUAUAACUC, 1.03. For UAACAGGGGGCCACAGCAGAAGCGUUCACGUCGCAGCCCCUGUCAGAUUCUGGCGAACCCGCGGAUUCCGCUGUAUAUCUC, the self-cleavage was 0.17.

Consider UAACAGGGGGCCACAGCAGAAGCGUUCACGUCGCAGCCCCUGUCAGAUUCUGGUGGAUCUGCGCAUUCUGCUGUUUAACUC, for which the self-cleavage was found to be 0.15. For the variant UAACAGGGGGCCACAGCAGAAGCGUUCACGUCGCAGCCCCUGUCAGAUUCUGGUGGAUCUGCGGAUCUUGCUGUAUAUCUC, the self-cleavage worked out at 0.36. In the case of UAACAGGGGGCCACAGCAGAAGCGUUCACGUCGCAGCCCCUGUCAGAUUCUGGCGAAUCUGCGAAUUAUGCCGUAUACCUC it was 0.28. For the variant UAACAGGGGGCCACAGCAGAAGCGUUCACGUCGCAGCCCCUGUCAGAUUCUGGCGAAUCUGCGAAUCCAGUUGUAUAUCUC, the self-cleavage was 0.14.

For the variant UAACAGGGGGCCACAGCAGAAGCGUUCACGUCGCAGCCCCUGUCAGAUUCUGGUGGAUCUGCGAAUUCAGCUGUAUAGCUC, the self-cleavage is 0.78. As to UAACAGGGGGCCACAGCAGAAGCGUUCACGUCGCAGCCCCUGUCAGAUUCUGGCGAGUCCGCGAAUUCUGCUGUAUACCUC, the self-cleavage is 0.39.

Regarding UAACAGGGGGCCACAGCAGAAGCGUUCACGUCGCAGCCCCUGUCAGAUUCUGGUGGAUCCGCGGAUUCUGCCGUAUAUCUC, the self-cleavage was determined as 0.17. In the case of UAACAGGGGGCCACAGCAGAAGCGUUCACGUCGCAGCCCCUGUCAGAUUCUGGCGAACCUGUGAAUUCUGCUGUAUAUCUC it was 0.34; in that of UAACAGGGGGCCACAGCAGAAGCGUUCACGUCGCAGCCCCUGUCAGAUUCUGGCGUAUCUGCGAAUUCUGUUGUUUAUCUC, 0.33; in that of UAACAGGGGGCCACAGCAGAAGCGUUCACGUCGCAGCCCCUGUCAGAUUCUGGUGGUUCUGCGAAUUCUGCUGUGUAUCUC, 0.23. As to UAACAGGGGGCCACAGCAGAAGCGUUCACGUCGCAGCCCCUGUCAGAUUCUGGCGAAUCUGCGAAUACUGCUGCAUGUCUC, the self-cleavage came out at 0.45. In the case of UAACAGGGGGCCACAGCAGAAGCGUUCACGUCGCAGCCCCUGUCAGAUUCUGGUGGAUCUGCGAAUUCAGCUGUACAUCUC, the self-cleavage was determined as 0.7. On to UAACAGGGGGCCACAGCAGAAGCGUUCACGUCGCAGCCCCUGUCAGAUUCUGGUGUAUCUCCGUAUUAUGCAGUAUAUCUC, for which the self-cleavage came out at 0.1. Consider UAACAGGGGGCCACAGCAGAAGCGUUCACGUCGCAGCCCCUGUCAGAUUCUGGCGAAUCUGCGACUCCUGCUGUAUAUCUC, for which the self-cleavage worked out at 0.11. In the case of UAACAGGGGGCCACAGCAGAAGCGUUCACGUCGCAGCCCCUGUCAGAUUCUGGCGAAUCUGCGAUUUCCGCUGUAUAUCUC it was 0.19.

On to UAACAGGGGGCCACAGCAGAAGCGUUCACGUCGCAGCCCCUGUCAGAUUCUGGUGGAUCUGCGGAUCCUGCUGUAUAUCUC, for which the self-cleavage amounted to 0.26. As to UAACAGGGGGCCACAGCAGAAGCGUUCACGUCGCAGCCCCUGUCAGAUUCUGGUAGAUCUGCGAAUUCUGCUGUAUAUCGC, the self-cleavage worked out at 1.04. With UAACAGGGGGCCACAGCAGAAGCGUUCACGUCGCAGCCCCUGUCAGAUUCUGGUAGAUCUGCGAAUUCUGCUGUAUAUCCC, the self-cleavage was 0.81. Turning to UAACAGGGGGCCACAGCAGAAGCGUUCACGUCGCAGCCCCUGUCAGAUUCUGGUGUAUCUGCUAAUUCUGCUGUAUACCUC, the self-cleavage turned out to be 0.61. In the case of UAACAGGGGGCCACAGCAGAAGCGUUCACGUCGCAGCCCCUGUCAGAUUCUGGUGGAUCUGCGAACUCUGCUGUAUAUCCC it was 0.65; in that of UAACAGGGGGCCACAGCAGAAGCGUUCACGUCGCAGCCCCUGUCAGAUUCUGGUAAAUCUGCGAAUUCUGCUGCAUAGCUC, 1.26.
